The text below walks through data of PubChem BioAssay AID488969 (Vanderbilt High Throughput Screening Facility, 2010).

Over roughly 110,000 compounds, “z-score” has its median near -0.1; the highest 2% begin near 2. The list shows a part of the results. Activity calls are given as the source filed them.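 How the source made its calls: active means z-score in the third read window above 3 or below -3; inactive means the rest.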

In this test the target is Metabotropic glutamate receptor 8 (Rattus norvegicus) (UniProt P70579). Nature of the test: rat mGluR8 modulators via GIRK flux, primary screen, cell-based, thallium flux, HTS (AID 488969). The conditions noted are these: HEK293 rat mGluR8, GIRK (G protein-gated inwardly rectifying potassium channel) thallium flux, FluoZin2; at 10 µM; stronger effect = higher value; submaximal glutamate (EC20) added with thallium.
Sequence of UniProt P70579 (P70579 whole entry, looked up): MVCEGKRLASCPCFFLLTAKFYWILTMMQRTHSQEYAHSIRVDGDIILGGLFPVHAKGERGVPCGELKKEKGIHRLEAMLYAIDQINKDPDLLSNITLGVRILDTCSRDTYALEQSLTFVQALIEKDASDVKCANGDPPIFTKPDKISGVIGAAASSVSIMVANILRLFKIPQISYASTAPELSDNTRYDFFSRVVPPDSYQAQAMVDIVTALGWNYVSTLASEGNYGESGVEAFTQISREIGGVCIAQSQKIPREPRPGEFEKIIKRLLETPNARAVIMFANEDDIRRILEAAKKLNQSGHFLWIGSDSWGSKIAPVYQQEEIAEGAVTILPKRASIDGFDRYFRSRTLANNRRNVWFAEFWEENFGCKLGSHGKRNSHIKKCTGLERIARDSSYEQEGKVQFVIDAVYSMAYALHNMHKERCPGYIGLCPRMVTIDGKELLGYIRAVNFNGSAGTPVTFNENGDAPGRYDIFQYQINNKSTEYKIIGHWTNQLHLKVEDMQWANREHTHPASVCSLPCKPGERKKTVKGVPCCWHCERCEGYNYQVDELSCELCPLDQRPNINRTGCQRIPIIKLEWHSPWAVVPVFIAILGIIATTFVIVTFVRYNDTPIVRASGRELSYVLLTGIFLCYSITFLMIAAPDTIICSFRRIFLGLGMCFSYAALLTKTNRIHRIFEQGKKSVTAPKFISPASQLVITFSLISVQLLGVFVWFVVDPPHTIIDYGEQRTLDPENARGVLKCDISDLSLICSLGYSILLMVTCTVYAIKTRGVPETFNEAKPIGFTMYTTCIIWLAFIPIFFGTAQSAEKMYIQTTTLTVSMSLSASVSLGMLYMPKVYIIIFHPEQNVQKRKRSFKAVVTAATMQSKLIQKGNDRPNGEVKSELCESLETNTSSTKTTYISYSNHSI
Molecule `CCn1c(SCC(=O)Nc2ccc(C(=O)OC)cc2)nnc1-c1cccs1` yielded a z-score of -0.248.
The result for `CCN(CC)C(=O)c1ccc2c(=O)n(CCOC)c(=S)[nH]c2c1` reads -0.0865; that for `O=C1c2ccccc2C(=O)N1CCc1csc(-c2ccccc2)n1`, -0.0668.
With `CC(=O)NC(CCS(C)(=O)=O)C(=O)Nc1ccccc1` (configuration not stated) the figure was -0.0623.
With `CSCCC(NC(=O)c1occc1C)C(=O)O` (configuration not stated) the figure was -0.0531.
For the molecule `COc1ccccc1NC(=O)c1ccccc1SC`, the z-score turned out to be 0.302.
In turn, `Cc1cccc(N2CCN(C(=S)NCCc3ccccc3)CC2)c1C` gave a z-score of -0.289.
The result for `CCCCCNC(=O)CCc1ccccc1` reads 0.18.
For `CCOC(=O)CSc1nc2sc3c(c2c(=O)n1C1CCCCC1)CCN(C)C3`, the z-score was 0.832.
With `O=C(CCS(=O)(=O)c1ccc(Br)cc1)Nc1cc(F)ccc1F` the figure was -0.0256; with `Cc1cc(C(=O)Nc2sc3c(c2C#N)CCC3)no1`, -0.0664.
The result for `Cc1ccc(S(=O)(=O)Nc2cccc3c2CCCC3)cc1` reads -0.724.
The result for `O=C(N/N=C\c1ccccc1OCc1ccccc1)c1ccco1` reads -0.634.
In the case of `Cc1nnc(SCC(=O)N2CCCc3ccccc32)[nH]c1=O`, the z-score was -0.411.
With `c1cc(-c2nnc3n2CCC3)[nH]n1` the figure was 0.305.
The result for `CC(C)(C#CCN1CCCCC1)OCCOC(c1ccccc1)c1ccccc1` reads -0.206; that for `CCN(CC)S(=O)(=O)c1ccc(-c2nnc(SCC(=O)Nc3ccc(OC)c(OC)c3)o2)cc1`, 0.581.
The result for `O=C(/C=C1\SC(=O)N(CC(=O)Nc2ccc(F)cc2)C1=O)Nc1ccc(Cl)cc1` reads -0.227; that for `Cc1ncn(C23CC4CC(CC(O)(C4)C2)C3)n1`, -0.328; that for `CCOc1ccccc1N1CCN(Cc2cccc(OC)c2O)CC1`, -0.0607.
As to `C=CCN=C1SCC(=O)N1S(=O)(=O)c1ccc(C)cc1`, the z-score was 0.0451.
With `O=C(c1cccc(F)c1)N1CCc2ccccc2C1` the figure was -0.184; with `CC1OC2C(OC1C)N(S(C)(=O)=O)CCN2S(C)(=O)=O` (configuration not stated), 0.246.
The result for `Cn1nnnc1SCC(=O)N(C1CCCCC1)C1CCCCC1` reads 2.45; that for `c1ccc(Nc2cc(Nc3ccccc3)[nH]n2)cc1`, 0.781; that for `Cc1ccc(N/N=C2\COC(C)(C)CC2=O)cc1`, -0.116.
The result for `O=[N+]([O-])c1cccnc1N1CCCCC1` reads -0.00595; that for `CCc1ccc(NC(=O)CN2C(=O)CSC2=O)cc1`, -0.183.
In turn, `CCOC(=O)C(C(=O)OCC)N(C#N)c1nc(SC)nc(N(C)C)n1` registered a z-score of -0.541.
In turn, `Cc1ccc2c(c1)n([O-])c1c([n+]2=O)CCCC1` registered a z-score of -0.166.
With `O=C(COc1ccc(Cl)cc1Cl)NC(=O)N1CCCCC1` the figure was 1.09; with `CCCn1c(SCC(=O)N2CCN(c3ccc(OC)cc3)CC2)nc2c1c(=O)n(C)c(=O)n2C`, -0.485; with `CCOC(=O)C(NC(=O)Cc1ccccc1)(Nc1cc(C)on1)C(F)(F)F` (configuration not stated), -0.041.
Turning to `CCOC(=O)/C(C#N)=C1/SC(CC)C(=O)N1c1ccc(Br)cc1` (configuration not stated), the z-score is -1.15.
The result for `Cc1nn(Cc2ccc(Cl)cc2Cl)c(C)c1NC(=O)CCl` reads 0.885; that for `CCn1cc(C(=O)NCc2ccc3c(c2)OCO3)c(=O)c2cc(F)c(N3CCN(C)CC3)cc21`, -0.452.
`O=C(O)c1ccc(NS(=O)(=O)c2cccc3cccnc23)cc1` yielded a z-score of -0.277.
The result for `CCc1ccc2nc3sc(C(=O)N4CCc5ccccc54)c(N)c3cc2c1` reads -0.0724; that for `COc1ccc(C(=O)NC(=S)Nc2ccccc2N2CCOCC2)cc1Br`, 0.169.
The result for `CCOC(=O)c1cc(C)sc1/N=C/C1=C(O)CCCC1=O` reads -0.139; that for `COc1ccccc1/C=C/C=N/NC(=O)CCC1C(=O)NN=C1C` (configuration not stated), -0.661.
For the molecule `CC(=O)c1cccc(S(=O)(=O)Nc2cccc(S(=O)(=O)NC3=NCCC3)c2)c1`, the z-score was -0.155.
On to `CSc1ccc(Cn2nnc(C(=O)Nc3ccc(C)c(C)c3)c2N)cc1`, for which the z-score is -0.13.
Molecule `COc1cc(C(=O)OCCN2CCOCC2)ccc1O` returned a z-score of -1.44.
With `Cc1c(C)n(C)c2ccc([N+](=O)[O-])cc12` the figure was -0.0554.
The result for `COc1ccc(-n2c(=O)c3c4c(sc3n3c(=S)[nH]nc23)CCCC4)cc1` reads 0.825; that for `CCCN(C(=O)CSc1nnc(-c2ccoc2C)n1N)C1CCS(=O)(=O)C1` (configuration not stated), -0.719; that for `CCN(CC)S(=O)(=O)c1ccc(C(=O)Nc2cc(C)cc(C)c2)cc1`, -0.47.
With `CCC(=O)NNc1cc(=O)c2c(=O)n(C)c(=O)n(C)c2[nH]1` the figure was 0.0356; with `CCN(CC)C(=O)C1CCCN(Cc2sccc2C)C1` (configuration not stated), -0.0538.
With `CC1CCN(C(=O)c2cc(-c3ccccc3O)on2)CC1`, the z-score was -0.827.
With `COc1ccc(/C=C2\SC(=O)N(CCNC(=O)C3CCN(S(=O)(=O)c4cccs4)CC3)C2=O)cc1` the figure was 0.617; with `Cc1ccc(C)c(S(=O)(=O)N2CCN(CC(=O)NC(=O)NCc3ccccc3)CC2)c1`, -1.57.
The result for `COc1cccc2cc(C(=O)N3CCN(C(=O)c4ccccc4)CC3)c(=O)oc12` reads 0.291; that for `Cc1cc(C)nc(N2CCC(C(=O)O)CC2)n1`, -0.412; that for `O=C(Nc1ccccc1C(=O)N1CCOCC1)c1cccc(S(=O)(=O)N2CCCC2)c1`, 0.0183.
With `COc1ccc(-c2cc(N3C(=O)Nc4ccccc4N3O)n[nH]2)cc1` the figure was 1.88.
In turn, `Cc1nc(S(=O)(=O)c2ccc(Cl)cc2Cl)nc2c1CCC2` yielded a z-score of -0.295.
The result for `CCC(C(=O)Nc1ccccc1)c1ccccc1` (configuration not stated) reads 0.444.
Consider `O=C(NCc1ccncc1)C(=O)NCC(c1ccco1)N1CCN(c2ccc(F)cc2)CC1` (configuration not stated), for which the z-score was -0.172.
With `O=C(N/N=C/C1CCCCC1)c1ccccn1` the figure was -0.056; with `CN(C)S(=O)(=O)c1ccc(NCC2COc3ccccc3O2)c([N+](=O)[O-])c1` (configuration not stated), -0.179; with `CCOc1cc(C2C(C(=O)N3CCOCC3)=C(C)NC3=C2C(=O)CCC3)ccc1O` (configuration not stated), -0.19.
The result for `Cc1nc(CS(=O)c2ccc(Cl)cc2)cc(N2CCOCC2)n1` (configuration not stated) reads 0.0146; that for `c1ccc2c(-c3nc(C4CCCCC4)no3)cc(-c3ccncc3)nc2c1`, 0.87; that for `CN(C)S(=O)(=O)c1cc(NC(=O)COC(=O)c2ccc3c(c2)OCO3)ccc1Cl`, active: 10.1.
The result for `COc1cc(OC)c(-n2c(C)cc(C=O)c2C)cc1Cl` reads 0.207.
Consider `CN(C)S(=O)(=O)c1cccc(NC(=O)COc2cccc(C#N)c2)c1`, for which the z-score was active: 3.82.
As to `COc1ccc(CCNc2nc(C)cc(=O)[nH]2)cc1OC`, the z-score was found to be 0.259.
In turn, `C[n+]1c2n(c3ccccc31)N=C(c1ccc(Cl)cc1)CS2` showed a z-score of 0.0842.
With `CCN1C(=O)/C(=C\N2CCN(c3ccc(F)cc3)CC2)SC1=S` the figure was 0.0731; with `CN1C(=O)NC(NC(=O)c2ccco2)(C(F)(F)F)C1=O` (configuration not stated), 0.842.
The result for `O=C(Nc1cccc(S(=O)(=O)N2CCCCC2)c1)c1ccc2c(=O)n3c(nc2c1)CCCCC3` reads -0.34.
The result for `O=C(Oc1cccnc1)c1cccc(Cl)c1` reads 0.111; that for `CCOC(=O)CN1C(=O)C(O)(c2c(C)[nH]c3ccccc23)c2ccccc21` (configuration not stated), 0.217.
As for `COc1ccc(OCc2nc(C#N)c(N3CCN(c4ccc(OC)cc4)CC3)o2)cc1`, the z-score was determined as 0.916.
The result for `Cn1c(NCc2ccccc2)cc(=O)n(C)c1=O` reads 0.432; that for `COc1ccc(OC)c(NC(=O)Cn2cc(C#N)c3ccccc32)c1`, -0.119.
The result for `C=CCNC(=O)/C(=C\C=C\c1ccccc1)NC(=O)c1ccc(OCCCC)cc1` reads -0.246.
The result for `C=CCOc1ccccc1CNn1nnnc1N` reads 0.0758; that for `CCCCCn1c(CCNC(=O)c2cccs2)nc2ccccc21`, -0.977; that for `Cc1ccc(S(=O)(=O)Nc2ccccc2C(=O)Nc2nc(-c3ccc(F)cc3)cs2)cc1`, 0.463.
In turn, `COc1ccc(-c2noc(CSc3nc(-c4ccccc4)cc(=O)[nH]3)n2)cc1` gave a z-score of 0.593.
The result for `CCOc1cccc(-c2nnc3sc(COc4ccc(Cl)cc4)nn23)c1` reads 0.486; that for `N#C/C(=C\c1cn(Cc2ccc(C#N)cc2)c2ccccc12)C(=O)NCc1cccs1`, -0.161.
With `C[C@H](N)c1nnc(SCc2c(Cl)cccc2Cl)o1` the figure was 0.175.
`Cc1noc(C)c1C(=O)OCC(=O)c1c[nH]c2ccccc12` had a z-score of 0.313.
The result for `COc1ccc2cc(C(=O)NCCO)sc(=O)c2c1OC` reads -0.297; that for `CCOC(=O)C1CCCN(CC(=O)Nc2c(C(=O)OC)[nH]c3ccc(Cl)cc23)C1` (configuration not stated), -0.59.
The result for `Cc1ccc(C(=O)Nc2c(C(=O)N3CCOCC3)cnn2-c2ccccc2)cc1` reads -0.509; that for `CC1(C)C=C(c2ccc(C(=O)O)s2)CC(C)(C)N1`, -0.278; that for `CCCC(=O)Nc1ccc(N2CCN(C(=O)CCC)CC2)cc1`, -0.88.
`COC(=O)c1ccc(NC(=O)CCN2CCN(Cc3ccccc3)CC2)cc1` had a z-score of -0.104.
The result for `CC(C)c1nc2ccccn2c1NC1CCCCC1` reads 0.45.
With `CCn1c(-c2cccnc2Cl)nc2cc(Cl)c(Cl)cc21` the figure was -0.597; with `Cc1coc(NC(=O)CSc2nc(-c3ccncc3)cc(C(F)(F)F)c2C#N)n1`, 0.412; with `CCOC(=O)/C(=N\Nc1ccc(Cl)cc1)Sc1nnc(-c2ccc(OC)cc2)n1C`, -0.112.
With `OCCNCCCCCOc1ccc(F)cc1` the figure was -0.393; with `CC(C)c1nnc(NC(=O)c2c(O)c3cccc4c3n(c2=O)CCC4)s1`, -1.01.
`O=c1c2ccsc2ncn1Cc1cccc(C(F)(F)F)c1` came in with a z-score of -0.17.
With `COc1ccc(C(=O)/C=C/c2ccc(C)cc2)c(OC(=O)c2ccc([N+](=O)[O-])cc2)c1` the figure was 0.0347.
The result for `Cc1cc(C)nc(SCC(=O)NC2=NC(=O)C(C)S2)n1` (configuration not stated) reads 0.0487.
With `Cc1ccc(C(=O)c2c(NC(=O)c3ccccc3C)sc(C)c2C)cc1` the figure was -0.151; with `CC(NC1CCCC1)C(=O)Nc1ccccc1-c1ccccc1` (configuration not stated), -0.0603; with `C=CCNC(=S)NNC(=O)c1cccn(Cc2ccc(Cl)c(Cl)c2)c1=O`, -0.8.
Turning to `CCCc1nc(SCC(=O)Nc2ccccc2)c2c(=O)n(C)c(=O)n(C)c2n1`, the z-score was 0.298.
With `CCN(CC(=O)Nc1cc(C)nn1-c1nc(C)cc(C)n1)Cc1ccccc1` the figure was 0.172; with `Cc1ccc(N/C(CSC(N)=O)=N\S(=O)(=O)c2ccc(C)cc2)cc1`, -0.0542.
Turning to `CCOC(=O)C1=C(C)NC2=C(C(=O)CC(c3ccc(OC)c(OC)c3)C2)C1c1ccc(C)o1` (configuration not stated), the z-score was active: 4.89.
With `CSc1cccc(NC(=O)CN(c2cccc(C)c2)S(C)(=O)=O)c1` the figure was 0.00929; with `O=C(Nc1ccccc1)OCC1CCCN2CCCCC12` (configuration not stated), 0.261.
With `O=C(Nc1ccccc1-c1nnc(SCc2ccc(Cl)cc2Cl)o1)c1ccccc1` the figure was 0.141.
